# In the supplement of paper PMC4967469:
# IC50 is the fitted dose that halves viability relative to control wells, and lower means more sensitive; a limit (>, <) means that the fit lies beyond the doses tested. AUC, from the same fit, is the share of area under the viability curve across the 256-fold dose range: 1 means no effect, lower means more sensitive. For some of these results: Where the top dose is marked as inferred, it is not printed in the source and was worked back from the curve model.
# Key:
# Assay in all cases: Viability of human cancer cell lines after 72 h of drug (GDSC screen)
# [1] = compound: O=c1cc(N2CCOCC2)oc2c(-c3cccc4c3sc3ccccc34)cccc12 [NU-7441]; conditions: top dose 2 µM; top dose inferred
# Procedure: (§1)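 Human cancer cell lines in 384-well plates, medium with 10% serum, drug for 72 h over a 256-fold dose range (nine 2-fold or five 4-fold steps up to the top dose). Adherent lines were fixed and stained with the nucleic acid dye Syto60, suspension lines read with resazurin; signal relative to control wells, capped at 0 and 100%. One two-parameter sigmoid per drug and line, fitted in a mixed model over all curves with the slope shared within a line.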
# [2] = compound: COc1cc2ncnc(Nc3ccc(F)c(Cl)c3)c2cc1OCCCN1CCOCC1 [Gefitinib]; conditions: top dose 0.5 µM
# Procedure: as §1
# [3] = compound: C=CC(=O)Nc1cc(NC(=O)c2ccc(C)c(NC(=O)c3ccno3)c2)cc(C(F)(F)F)c1 [QL-XI-92]; conditions: top dose 10.24 µM; top dose inferred
# Procedure: as §1
# [4] = compound: CCC1=C[C@@H]2CN(C1)Cc1c([nH]c3ccccc13)[C@@](C(=O)OC)(c1cc3c(cc1OC)N(C)[C@H]1[C@@](O)(C(=O)OC)[C@H](OC(C)=O)[C@]4(CC)C=CCN5CC[C@]31[C@@H]54)C2 [Vinorelbine]; conditions: top dose 0.064 µM; top dose inferred
# Procedure: as §1
# [5] = compound: COc1cc2ncnc(Nc3cc(Br)c(O)c(Br)c3)c2cc1OC [WHI-P97]; conditions: top dose 10.24 µM; top dose inferred
# Procedure: as §1
# [6] = compound: CNCc1ccc(-c2[nH]c3cc(F)cc4c3c2CCNC4=O)cc1 [AG-014699]; conditions: top dose 5 µM; top dose inferred
# Procedure: as §1
# [7] = compound: COc1cc2nccc(Oc3ccc(NC(=O)C4(C(=O)Nc5ccc(F)cc5)CC4)cc3)c2cc1OC [XL-184]; conditions: top dose 5.12 µM; top dose inferred
# Procedure: as §1
# [8] = compound: O=c1cc(CN2CCOCC2)occ1OCCCCCSc1ccnc2cc(C(F)(F)F)ccc12 [EHT 1864]; conditions: top dose 10 µM; top dose inferred
# Procedure: as §1
# [9] = compound: N=C(N)NC(=N)NCCc1ccccc1 [Phenformin]; conditions: top dose 4000 µM; top dose inferred
# Procedure: as §1
Cell Line,AUC [1],IC50 [1],AUC [2],IC50 [2],AUC [3],IC50 [3],AUC [4],IC50 [4],AUC [5],IC50 [5],AUC [6],IC50 [6],AUC [7],IC50 [7],AUC [8],IC50 [8],AUC [9],IC50 [9]
"A2780 (ovary, semi-adherent)",0.981,> 2 µM,0.973,> 0.5 µM,0.893,> 10.2 µM,0.62,0.00868 µM,0.904,> 10.2 µM,0.759,1.8 µM,0.813,2.88 µM,0.812,5.61 µM,,
"CAL-62 (thyroid, adherent)",0.968,> 2 µM,0.943,> 0.5 µM,0.987,> 10.2 µM,0.626,0.00873 µM,0.987,> 10.2 µM,0.947,> 5 µM,0.988,> 5.12 µM,0.902,> 10 µM,,
"CAPAN-1 (pancreas, adherent)",0.987,> 2 µM,0.987,> 0.5 µM,0.976,> 10.2 µM,0.69,0.0146 µM,0.987,> 10.2 µM,,,0.946,> 5.12 µM,0.934,> 10 µM,0.849,3530 µM
"CHSA0011 (chondrosarcoma, adherent)",0.969,> 2 µM,0.971,> 0.5 µM,0.972,> 10.2 µM,0.932,> 0.064 µM,0.962,> 10.2 µM,,,0.925,> 5.12 µM,0.95,> 10 µM,0.805,3070 µM
"COLO-783 (melanoma, adherent)",0.962,> 2 µM,0.985,> 0.5 µM,0.987,> 10.2 µM,0.987,> 0.064 µM,0.98,> 10.2 µM,,,0.99,> 5.12 µM,0.969,> 10 µM,0.989,> 4000 µM
"Caov-4 (ovary, adherent)",0.98,> 2 µM,0.98,> 0.5 µM,0.98,> 10.2 µM,0.966,> 0.064 µM,0.962,> 10.2 µM,0.98,> 5 µM,0.886,> 5.12 µM,0.976,> 10 µM,,
"EBC-1 (lung squamous cell carcinoma, adherent)",0.943,> 2 µM,0.979,> 0.5 µM,0.933,> 10.2 µM,0.582,0.00692 µM,0.923,> 10.2 µM,0.957,> 5 µM,,,0.947,> 10 µM,0.88,> 4000 µM
"G-292 Clone A141B1 (osteosarcoma, adherent)",0.941,> 2 µM,0.934,> 0.5 µM,0.939,> 10.2 µM,0.832,> 0.064 µM,0.963,> 10.2 µM,,,0.837,> 5.12 µM,0.831,> 10 µM,0.802,3620 µM
"H290 (mesothelioma, adherent)",0.969,> 2 µM,0.963,> 0.5 µM,0.886,9.64 µM,0.803,0.0287 µM,,,0.989,> 5 µM,,,0.989,> 10 µM,,
"HCC1500 (breast, adherent)",0.966,> 2 µM,0.969,> 0.5 µM,0.931,> 10.2 µM,0.749,0.0214 µM,0.983,> 10.2 µM,0.988,> 5 µM,0.988,> 5.12 µM,0.891,> 10 µM,,
"HCC-78 (lung adenocarcinoma, adherent)",0.972,> 2 µM,0.98,> 0.5 µM,0.964,> 10.2 µM,0.78,0.0313 µM,0.983,> 10.2 µM,,,0.888,> 5.12 µM,,,0.983,> 4000 µM
"HL-60 (acute myeloid leukaemia, suspension)",0.896,> 2 µM,0.98,> 0.5 µM,0.918,> 10.2 µM,0.682,0.0121 µM,0.975,> 10.2 µM,0.99,> 5 µM,,,0.982,> 10 µM,0.448,183 µM
"HSC-2 (head and neck, adherent)",0.943,> 2 µM,0.756,0.16 µM,0.984,> 10.2 µM,0.414,0.00238 µM,0.976,> 10.2 µM,,,0.955,> 5.12 µM,0.948,> 10 µM,0.862,3010 µM
"Hep 3B2_1-7 (liver, adherent)",0.944,> 2 µM,0.987,> 0.5 µM,0.986,> 10.2 µM,0.677,0.0124 µM,0.987,> 10.2 µM,0.986,> 5 µM,,,0.901,> 10 µM,0.849,2990 µM
"Hs746T (stomach, adherent)",0.931,> 2 µM,0.98,> 0.5 µM,0.951,> 10.2 µM,0.946,> 0.064 µM,0.981,> 10.2 µM,0.981,> 5 µM,,,0.952,> 10 µM,0.974,> 4000 µM
"HuH-7 (liver, adherent)",0.907,> 2 µM,0.978,> 0.5 µM,0.977,> 10.2 µM,0.776,0.0254 µM,0.984,> 10.2 µM,0.977,> 5 µM,,,0.94,> 10 µM,0.816,2210 µM
